Assay results published in article PMC12136788.
Some of the results follow.

T1: UNK ZnF1-3 (human, UniProt Q9C0B0 31-174)
T1 sequence: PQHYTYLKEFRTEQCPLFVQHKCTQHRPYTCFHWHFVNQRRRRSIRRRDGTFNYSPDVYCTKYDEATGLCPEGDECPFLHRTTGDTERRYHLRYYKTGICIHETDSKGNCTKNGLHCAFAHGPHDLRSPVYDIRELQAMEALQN

B1: chr7:102950833:102950834:+_ENSG00000105819_ENST00000453466|hu_hu|FALSE|FALSE (ssRNA)
RNA: GGGAGUUCUACAGUCCGACGAUCACCAUAUACAGUCCCCAUAAUCCUGUAUCUGUGUAGGAAGUGUUGAAAGACUGAAAGCUAUGGCAAAGAUUGCCAUGACAAGUGAGCUGGGCCAGCUUGCUAGAUAAAUUCAUUCCUCCCCAACAGAGGAUUGAGCAUCA
B2: chr8:103840089:103840090:-_ENSG00000155096_ENST00000347770|hu_mus|FALSE|FALSE (ssRNA)
RNA: GGGAGUUCUACAGUCCGACGAUCUCUCCAUAAUAAAUCUGAACUUCACAAUGAUUACCAAACACAUUUACUUAAAUUACUAAUUAAAUAACUAAAAAGUAUAUUGAGGCAAACCAAACUUAAACGGGUUAUAAAGAAACUAACCAACAGAGGAUUGAGCAUCA
B3: chr11:29607870:29607871:+_ENSMUSG00000020458_ENSMUST00000102843|mus_hu|FALSE|FALSE (ssRNA)
RNA: GGGAGUUCUACAGUCCGACGAUCGAAAUCCGGAGCUGGUUCAGCAGAAAGCUUUGUUUCUUUAAUUAAAUCACAUGCAAUAGAUAUAUAAGGAGCUUCUGUUUCUUGAAGAGCUGCAUUAAUAUUUUCAGGCUCUUUAAUUUCCAACAGAGGAUUGAGCAUCA
B4: chr1:28564431:28564432:+_ENSG00000130770_ENST00000335514|hu_hu|FALSE|FALSE (ssRNA)
RNA: GGGAGUUCUACAGUCCGACGAUCUUAAUCAUCAUGUUUUAGCAUUUUGAUCUUCUGCUUAUGGCGCUCAAUUUCUUUCUGCAGACGCUCAAUCUCCUUCUUAUGAUGAACGAUUUCUUCUUCAUGGUGUUUUUUCAAAGCUGCCAACAGAGGAUUGAGCAUCA
B5: chr1:33856384:33856385:-_ENSMUSG00000042197_ENSMUST00000044455|mus_mus|motif|central (ssRNA)
RNA: GGGAGUUCUACAGUCCGACGAUCUAGUGCUGUCUUGAAAAUACUUAAGAGCUGUACAAUAAUGUCAAAAUUAUUAAAGUGCGGAAUUUUCUGUGCUUUUUUGUUGCCGUUUAAUAUAAAGCGGGGAUUGAUACAAAUAAAUUACAACAGAGGAUUGAGCAUCA
B6: 46584523_46585552_994_CDS_ENSG00000123200_ENST00000242848|human|control|control (ssRNA)
RNA: GGGAGUUCUACAGUCCGACGAUCCCUAUCUUUCUUGCUAGCUGAAGACGACUUCGGGCUUGAUUUUCGCUUCGGAGAUUUGCUAGACUUUCUUAGAGAAGGUGACGGGGACAAUUUUGAUCUAACCACUUCUGGUGAAACCUCCAACAGAGGAUUGAGCAUCA
B7: chr5:146772872:146772873:-_ENSG00000113657_ENST00000343218|hu_hu|FALSE|FALSE (ssRNA)
RNA: GGGAGUUCUACAGUCCGACGAUCGCUCUGUCCCUGCCUGGCCUUCCCAACCCAGGAAAGAGAAGGAUUUGAAAGCAACACUAAGAAAGAGGCCUGAGCAAACACUGGCACAAUCAAGCAGGUGGAAGAAAUGGUUGGGUCUUGCAACAGAGGAUUGAGCAUCA
B8: chr12:56598494:56598495:-_ENSG00000181852_ENST00000345093|hu_hu|FALSE|FALSE (ssRNA)
RNA: GGGAGUUCUACAGUCCGACGAUCGUAUGAGCCUUGGUUAAGGCAGGUAGGGGAAAGGGGAGUGGAAGAAAUGUAGUAACCAGAGUAAGUAUAGCAGCGUUUUCAAAUUCCUGAGCACAAUGUCCCAGAGCUGGAACCCUACUCCAACAGAGGAUUGAGCAUCA
B9: chr5:150090687:150090688:-_ENSG00000132912_ENST00000447998|hu_mus|FALSE|FALSE (ssRNA)
RNA: GGGAGUUCUACAGUCCGACGAUCUUGUGUUGACACAGCUGUGGGUGGGGUCACUGUGUUUUAAGGAAGAAGAGGGCCAAAGCUCAGCUCCACGUGCUGCGUGAGCCAGAUGACCUCUGUGCCUUGGUCACCUUCUUCCACUGGCAACAGAGGAUUGAGCAUCA
B10: chr22:19452774:19452775:-_ENSG00000070010_ENST00000399523|hu_hu|hu_hu_hu_mus_False|58_108 (ssRNA)
RNA: GGGAGUUCUACAGUCCGACGAUCCUUUUCAUUAUAGUUGAUAGCAAUCACAUCUCCAGUCGUCAGACAGGCGAAGUUCCUAAGUGCAUUUUCUAAUACCGCUUUAGGGUUGGUAAUAUCCAGGAAGUCUGGGCUCUGAGGCUGCAACAGAGGAUUGAGCAUCA
B11: chr7:141445308:141445309:+_ENSG00000106028_ENST00000265304|hu_hu|hu_hu_hu_mus_False|8_88 (ssRNA)
RNA: GGGAGUUCUACAGUCCGACGAUCUAUGAUUGUUGUUGCUUGCCGCCUCACAUUAUUUUUAUCCAUGUACUCGCCAUAGUCCACUUUCCCUUCCACAAAUAUACGAGCCCCCUUUUUCACAUACUGAUAUGCCACGUCUCUGAGCAACAGAGGAUUGAGCAUCA
B12: chr9:120860063:120860064:+_ENSMUSG00000006932_ENSMUST00000007130|mus_hu|FALSE|FALSE (ssRNA)
RNA: GGGAGUUCUACAGUCCGACGAUCCUGCAUGCCCUCAUCUAAUGUCUCAGGGAACAUAGCAGCUCGUACCCUCUGAGCUCGAGUCAUUGCAUACUGUCCAUCAAUAUCAGCUACUUGUUCUUGAGUGAAGGACUGAGAAAAUCCCAACAGAGGAUUGAGCAUCA
B13: chr4:83347727:83347728:-_ENSG00000152795_ENST00000602300|hu_hu|motif|central (ssRNA)
RNA: GGGAGUUCUACAGUCCGACGAUCCCCAGUAUAAUCAUAUCCGCCAUAGCCACUAUAGUUUUGAUCACCACCAUAGGCACGGUUGUAAUUUCCAUAUCCUUGAUCAUAAUAGUUAUUAAAUCCUUGGUUCCAGUUUUGGCCCUGCAACAGAGGAUUGAGCAUCA
B14: chr5:29673426:29673427:-_ENSMUSG00000010721_ENSMUST00000055195|mus_hu|FALSE|FALSE (ssRNA)
RNA: GGGAGUUCUACAGUCCGACGAUCAUUGCUGAUGAUUGAGAAGGGUAAAAGCAAAACAGCCCCAGCUGACACUGCGAGAGUGAACGUGCUCAAAAACAACGAAAUCCUGUUGACGAUGGCAUCUUCAUCUUCUUGUUCAUCUGACAACAGAGGAUUGAGCAUCA

The binders below were run against T1, UNK ZnF1-3 (assay: nsRBNS (natural sequence RNA bind-n-seq); RBNS binding buffer (assumed for nsRBNS): 25 mM Tris pH 7.5, 150 mM KCl, 3 mM MgCl2, 0.01% Triton X-100, 500 ug/ml BSA, 20 U/ml SUPERase-In, 4 C; UNK is unkempt and MSI1 is Musashi-1; names of the RNAs are library labels; protein concentration not given here; high values mean tight binding).
For B1, the binding signal was 1.3 enrichment R.
Work on B2 yielded a binding signal of 1.92 enrichment R.
Binder B3 has a binding signal of 2.24 enrichment R.
Work on B4 yielded a binding signal of 0.473 enrichment R.
Binder B5 has a binding signal of 1.76 enrichment R.
In the case of B6, the binding signal is reported as 0.533 enrichment R.
In the case of B7, the binding signal is reported as 2.61 enrichment R.
B8 gave a binding signal of 1.32 enrichment R.
B9 was tested, and the binding signal was 0.408 enrichment R.
B10 showed a binding signal of 0.834 enrichment R.
B11 gave a binding signal of 0.652 enrichment R.
B12 gave a binding signal of 0.958 enrichment R.
In the case of B13, the binding signal is reported as 0.778 enrichment R.
B14 was tested, and the binding signal was 0.915 enrichment R.
